Variants at the floor of the assay are shown more often than the library holds them.
B1: TPR 5TU (parent)
chain: GGAUCUUCUCGAUCUAACAAAAAAGACAAAUCUGCCACAAAGCUUGAGAGCAUCUUCGGAUGCAGAGGCGGCAGCCUUCGGUGGCGCGAUAGCGCCAACGUUCUCAACUAUGACACGCAAAACGCGUGCUCCGUUGAAUGGAGUUUAUCAUG

Variants of: B1
Assay: polymerase ribozyme fitness, log enrichment relative to wild type (log ratio); higher = more active; in vitro selection for triplet polymerase activity
Procedure, shortened: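 A single round of triplicate in vitro selection, including frozen incubation at −7 °C, was applied to PCR-built, transcribed mutant libraries of each subunit of a heterodimeric triplet polymerase ribozyme. Illumina sequencing of input and output libraries retained genotypes with ≥10 input reads and ≥1 read per output. Fitness is the base-2 logarithm of genotype enrichment divided by wild-type enrichment, from inverse-variance-weighted replicate averages.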

Variant | polymerase ribozyme fitness (log ratio)
G34C C51A G58A G59C C96A A107U | ≤ -4.2
G34C C51G C57U G83C | ≤ -4.2
G34C C51G G59A C75G | ≤ -4.2
G34C C57A C87U G141C | ≤ -4.2
G34C C85U C96U G128A | ≤ -4.2
G34C G42U G136A | ≤ -4.2
G34C G50U C54A G94U C99U | ≤ -4.2
G34C G68U C108A G124U U135G C149U | ≤ -4.2
G34C G70C G94C U102G A147C A150G | ≤ -4.2
G34C G74A U109A C123U C149U | ≤ -4.2
G34C G81C C93G C118U | ≤ -4.2
G34C U55C U77A C93G C108U | ≤ -4.2
G34U A37G G50U A89C G92A A138U | ≤ -4.2
G34U A40G G67C G68A G126A | ≤ -4.2
G34U A40U G59C A60G C95U C131U U144C | ≤ -4.2
G34U A41C G94A U134A A138C | ≤ -4.2
G34U A47C A49C A66U U102A A107G | ≤ -4.2
G34U A47G C57G G68A U102A | ≤ -4.2
G34U A49C G65C G68U C87U C125A | ≤ -4.2
G34U A49G G65A C87U A107U U135C | ≤ -4.2
G34U A52C U53A C85U A97U C99G C114A | ≤ -4.2
G34U A106G | -0.622
G34U C51G G70C A89U A115U U134A G140U | ≤ -4.2
G34U C51U U61A G81U A91U | ≤ -4.2

Variant | polymerase ribozyme fitness (log ratio)
G34U C54G G83U A106G C116U G136A | ≤ -4.2
G34U C54U C69G G92U C103U C114U | ≤ -4.2
G34U C57A C103G C108A | ≤ -4.2
G34U C69U G94U | ≤ -4.2
G34U C76G C79U G94A C96G A97U C103A A107U A120U U145A C149U | ≤ -4.2
G34U C76G U82A C132A A147U | ≤ -4.2
G34U C85U C103A U135A | ≤ -4.2
G34U C87G G92C C105A G126U | ≤ -4.2
G34U C99G A106U U127A C132U U139C | ≤ -4.2
G34U G42A U82C U135C | ≤ -4.2
G34U G42U C57G C87A G100U A110C U135A G141U | ≤ -4.2
G34U G42U C76U G92U C118G | ≤ -4.2
G34U G46C A73U C75A C85U A113G | ≤ -4.2
G34U G48C A91U G126A U134A | ≤ -4.2
G34U G68U C95G G133A | ≤ -4.2
G34U G83A C129G G141A | ≤ -4.2
G34U G88U A91U A122C | ≤ -4.2
G34U G94C | -3.96
G34U U55A A91G G94U | ≤ -4.2
G34U U55A U82C U90G A107U G143A U144G | ≤ -4.2
G34U U90C U102C U151C | ≤ -4.2
C35A | -2.69
C35A A37U A52C C85U U104G C114U | ≤ -4.2
C35A A39C G58U G62C G67C A73G C93G C96A A98G | ≤ -4.2

Variant | polymerase ribozyme fitness (log ratio)
C35A A39U C96A | ≤ -4.2
C35A A40G C96U U146G | ≤ -4.2
C35A A41C C57U C85G | ≤ -4.2
C35A A41G G143C A147C | ≤ -4.2
C35A A41U C95U C118U A120U U146A | ≤ -4.2
C35A A47C G81U | ≤ -4.2
C35A A47C G86U U146G U151A | ≤ -4.2
C35A A47C U61A U77A C93U | ≤ -4.2
C35A A47U C57U U101A C114G C123U | ≤ -4.2
C35A A49G C87A C103A | ≤ -4.2
C35A A49U C54G C95U | ≤ -4.2
C35A A52G U61G G84A G94A A120G A121C A137G | ≤ -4.2
C35A A60C A97G U145G | ≤ -4.2
C35A A60C U102G | ≤ -4.2
C35A A60G C87U C96A G136A U146A | -4.03
C35A A60U U77A U82A G83C A97U G126A | -3.93
C35A A66C C79G C87U A107C G136C | ≤ -4.2
C35A A91G C105U | -4.17
C35A A107U C108U | -3.61
C35A C36G G65C G86C U144G | ≤ -4.2
C35A C38U C93U G136A | ≤ -4.2
C35A C51U G81A G86U C95G U111G | ≤ -4.2
C35A C54U A91G G94U | ≤ -4.2
C35A C54U U56A G80A G83U C96A C105G C116G | ≤ -4.2

Variant | polymerase ribozyme fitness (log ratio)
C35A C54U U82C C85A C132U | ≤ -4.2
C35A C57A A60U C76A C79U A89C | ≤ -4.2
C35A C57G G88A | ≤ -4.2
C35A C57U C85U C118U G128A G152U | -3.96
C35A C75G C95G A98U A113G U127G A138C | ≤ -4.2
C35A C75G G80A U82G C87U A122G G152A | ≤ -4.2
C35A C76A | -4.08
C35A C87A G100U A120U | ≤ -4.2
C35A C87G G94A | ≤ -4.2
C35A C95G A107C U145G U146G U148G | ≤ -4.2
C35A C95U U127A | ≤ -4.2
C35A C96U G128C | ≤ -4.2
C35A C99U U139A | ≤ -4.2
C35A C103A | ≤ -4.2
C35A C103G C105U A106G U144G | ≤ -4.2
C35A G42A A91U | -3.84
C35A G42C G84U C116G | ≤ -4.2
C35A G46A G100C G133C | ≤ -4.2
C35A G48U U139A | ≤ -4.2
C35A G50A U55G C87A C105U G117U A122U C149A | ≤ -4.2
C35A G50C C75U C87A C105U A107U C125A C129U U135C | ≤ -4.2
C35A G50C G86U C118A | ≤ -4.2
C35A G59A C85U G126A U130G | ≤ -4.2
C35A G59U C69G | -2.14

Variant | polymerase ribozyme fitness (log ratio)
C35A G59U C93A A97C U101G | ≤ -4.2
C35A G67A G70C G92A C114U C149A A150C G152U | ≤ -4.2
C35A G74A C95G A121U | ≤ -4.2
C35A G83A G84U C85A A115G | ≤ -4.2
C35A G88A C125U U127A U135G U148G G152U | ≤ -4.2
C35A G88C | ≤ -4.2
C35A G88C A97U A115U G124C G140A | ≤ -4.2
C35A G88U C95G C105U U145G | ≤ -4.2
C35A G92C C105G G143C A147U | ≤ -4.2
C35A G94A U148G | ≤ -4.2
C35A U45A A47G G65U C103U U134C G141U | ≤ -4.2
C35A U45A U101A | -4.13
C35A U53A C93U A147G | ≤ -4.2
C35A U90G G92A G112A C131G G143A | ≤ -4.2
C35A U102G C116U | ≤ -4.2
C35A U148A | ≤ -4.2
C35G | -3.25
C35G A39U C72U G86A C114A | ≤ -4.2
C35G A39U U53A A73G C85G G140A | ≤ -4.2
C35G A40C A60C G83A C99A U139C A142C | ≤ -4.2
C35G A49G G84U A110G C114U | ≤ -4.2
C35G A52G G80U C85A A122U | ≤ -4.2
C35G A73G C85G | ≤ -4.2
C35G A122U C125U G141C | ≤ -4.2

Variant | polymerase ribozyme fitness (log ratio)
C35G C36G G128U | ≤ -4.2
C35G C38U C69U G83U A110G U144A A150C | ≤ -4.2
C35G C51U G65U G81A C87A A115G C125U | ≤ -4.2
C35G C54U G80C | ≤ -4.2
C35G C57G C131G U134A | ≤ -4.2
C35G C57U G67A C99A A121G G126C | ≤ -4.2
C35G C69A U101C U127A | ≤ -4.2
C35G C72A A106U U139A | ≤ -4.2
C35G C75A C76A G80A C123U | ≤ -4.2
C35G C75G A98G G126C C131G | ≤ -4.2
C35G C75U A91U U148C A150G | ≤ -4.2
C35G C75U G94U | ≤ -4.2
C35G C76A C96U A121G | ≤ -4.2
C35G C76U G92A C123G A137U | ≤ -4.2
C35G C95A C96U C132G A138C | ≤ -4.2
C35G C95A C99U U102A U111C | ≤ -4.2
C35G C95G A97C C114G G124A A138G | ≤ -4.2
C35G G46A G50A C79U G92C C95U A107G C129G G141C | ≤ -4.2
C35G G50C U56A A64U G133C U148G | ≤ -4.2
C35G G58A G100A G126A | ≤ -4.2
C35G G58C C75G C76U A89U C95G C108A A137C | ≤ -4.2
C35G G62A G74A C79U C95A A120U C125U | ≤ -4.2
C35G G62C G80A U90C C95A A106G | ≤ -4.2
C35G G71A C96G U139G | -3.91

Variant | polymerase ribozyme fitness (log ratio)
C35G G74C G81C C87G G143C G152U | ≤ -4.2
C35G G88A C95U U101A G141C | -4.12
C35G G92A C118G | ≤ -4.2
C35G G94C C125G C131U A142G | ≤ -4.2
C35G G126C | ≤ -4.2
C35G U45G C51U A66C U139C | ≤ -4.2
C35G U45G G80U C85U A97U A107G | ≤ -4.2
C35G U53A | ≤ -4.2
C35G U53A G68U C75A C96U C108A | ≤ -4.2
C35G U53G A64C C79G U109A A115U A142C | ≤ -4.2
C35G U53G A64C C79G U109A A115U G128C A142G | ≤ -4.2
C35G U55A G74A A89U A115C | ≤ -4.2
C35G U56G U148C | ≤ -4.2
C35G U61A | ≤ -4.2
C35G U82A G94U G126A A138U | ≤ -4.2
C35U | -0.0953
C35U A37C A47G G67U G126A | ≤ -4.2
C35U A37C U55A C95U | -1.32
C35U A37G U55G C105G | ≤ -4.2
C35U A39C A98G U134C | ≤ -4.2
C35U A39C U56C C63U A110C A115G A121G G126A | ≤ -4.2
C35U A39C U78G C103A | ≤ -4.2
C35U A39G G84C A106G A120U G152A | ≤ -4.2

— the RNAGym collection of RNA variant scans (doi:10.1073/pnas.2313332121)
